Results from article PMC4336329 (PLoS ONE, 2015).
Out of some 310,000 compounds screened, about 14,000 (4.5%) showed an effect of 50% or more. Effects have a minus sign here. Some of the results follow.

target: human ether-à-go-go-related gene (hERG) potassium channel (human, UniProt Q12809); test: primary screen, population patch clamp on CHO cells stably expressing hERG
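Further: peak tail current of the secondary pulse compared with the same well before compound.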

Chain of human ether-à-go-go-related gene (hERG) potassium channel (Q12809 whole entry, looked up): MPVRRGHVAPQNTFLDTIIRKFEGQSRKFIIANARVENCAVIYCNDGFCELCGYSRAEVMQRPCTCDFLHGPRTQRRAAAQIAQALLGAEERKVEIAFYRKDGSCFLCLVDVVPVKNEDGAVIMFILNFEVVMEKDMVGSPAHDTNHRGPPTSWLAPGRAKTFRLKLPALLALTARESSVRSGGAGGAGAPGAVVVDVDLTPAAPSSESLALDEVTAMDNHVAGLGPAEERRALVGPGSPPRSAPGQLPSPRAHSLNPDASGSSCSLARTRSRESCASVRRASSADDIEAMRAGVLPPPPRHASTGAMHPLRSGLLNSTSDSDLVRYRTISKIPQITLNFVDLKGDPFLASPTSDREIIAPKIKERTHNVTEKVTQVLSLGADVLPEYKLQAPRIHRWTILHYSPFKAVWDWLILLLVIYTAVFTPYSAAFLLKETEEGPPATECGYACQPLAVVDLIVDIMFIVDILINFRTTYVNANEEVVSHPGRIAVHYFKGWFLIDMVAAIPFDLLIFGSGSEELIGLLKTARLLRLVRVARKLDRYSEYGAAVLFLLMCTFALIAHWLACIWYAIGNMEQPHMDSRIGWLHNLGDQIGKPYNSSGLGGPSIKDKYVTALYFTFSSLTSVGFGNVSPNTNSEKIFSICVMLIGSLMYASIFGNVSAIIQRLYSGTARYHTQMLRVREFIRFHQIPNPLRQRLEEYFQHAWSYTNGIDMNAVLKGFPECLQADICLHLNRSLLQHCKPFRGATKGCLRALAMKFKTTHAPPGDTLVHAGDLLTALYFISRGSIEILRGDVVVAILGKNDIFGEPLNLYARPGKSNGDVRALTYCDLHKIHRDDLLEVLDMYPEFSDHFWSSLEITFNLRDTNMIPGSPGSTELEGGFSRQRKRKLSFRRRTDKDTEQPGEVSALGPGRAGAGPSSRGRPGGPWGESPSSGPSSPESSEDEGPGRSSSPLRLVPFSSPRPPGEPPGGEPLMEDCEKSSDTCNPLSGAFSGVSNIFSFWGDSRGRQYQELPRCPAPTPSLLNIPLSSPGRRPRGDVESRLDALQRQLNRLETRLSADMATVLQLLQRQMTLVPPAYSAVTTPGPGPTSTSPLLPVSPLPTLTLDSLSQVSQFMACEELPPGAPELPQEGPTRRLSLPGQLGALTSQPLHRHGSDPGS

SMILES	hERG current change (%, negative = inhibition) at 10uM [%]
COC(=O)C1=C(C)N(Cc2ccc(C)cc2)C(=O)/C1=C\c1ccc(O)c(OC)c1	6.31
CCC(C)(C)NC(=O)C(c1cccc(OC)c1OC)N(Cc1ccccc1)C(=O)CCC(=O)Nc1cc(C)on1 (stereo not shown)	-4.14
Cc1ccc(-n2nnnc2-c2cnn(-c3cccc(F)c3)c2C(F)(F)F)cc1	-7.43
O=C(O)c1cccc([N+](=O)[O-])c1C(=O)Nc1nc2ccccc2s1	37.4
CCOC(=O)CCCCC(=O)c1[nH]c(=O)[nH]c1C[n+]1ccccc1.[Cl-]	26.4
COc1cccc(N2C(=O)NC(=O)/C(=C/c3ccc([N+](=O)[O-])s3)C2=O)c1	7.16
O=C(NNc1ccc([N+](=O)[O-])cc1)c1ccccc1Cl	3.45
Cc1ccc(C(C)C)c(OCCCn2ccnc2C)c1.O=C(O)C(=O)O	-63.8
CC(C)=CCC(C)(C)C1OCCN1C(=O)c1ccccc1 (stereo not shown)	-18.7
CC(=O)Nc1ccc(C(=O)NCCc2ccccc2)cc1	12.9
O=C(N/N=C/C=C/c1ccccc1)c1cccnc1	-10.3
O=C(CCN1C(=O)c2ccccc2C1=O)C1=NN[C@@H]2C(=O)N(c3cccc(Cl)c3)C(=O)[C@H]12	11.6
O=C(c1ccc(-c2ccccc2)cc1)N1CCN(c2ccccc2)CC1	14.7
COc1ccc(Br)cc1C(=O)NC(=S)Nc1c(C)n(C)n(-c2ccccc2)c1=O	24.8
CC(CNS(=O)(=O)c1ccc2c(c1)NC(=O)CCS2)c1ccccc1 (stereo not shown)	-8.52
CCC(=O)N1CCc2cc(S(=O)(=O)NC(C(=O)N3CCc4ccccc4C3)C(C)C)ccc21 (stereo not shown)	-10.2
CC1(C)CC(=O)C2=C(C1)N=c1s/c(=C/c3ccc(F)c(F)c3)c(=O)n1C2c1ccc(F)cc1 (stereo not shown)	10.8
CCn1c(Cc2ccccc2)nnc1SCC(=O)Nc1ccc2c(c1)OCCO2	-7.3
CC1CCN(C(=O)c2[nH]cnc2C(=O)N[C@@H](C)c2ccccc2)CC1	-3.53
O=S(=O)(c1ccc(F)cc1)N1CCN(c2ncccn2)CC1	7.6
CC(=O)N1CCCc2cc(S(=O)(=O)N3CCCC(C(=O)N4CCN(c5ccccc5)CC4)C3)ccc21 (stereo not shown)	-21.3
CCCN(CCC)CCCNc1ccc2nnc(-c3ccc(F)cc3)n2n1	-55.9
